Source: the supplement of paper PMC4967469
By IC50 is meant the dose at which the fit gives 50% viability; fits outside the tested doses are given as limits. For AUC the same curve is integrated over the 256-fold range of doses and scaled to a fraction; it is 1 without any effect and falls as sensitivity rises. A top dose marked as inferred was calculated from the reported fits.

Compound: O=C1NC(=NCc2cccs2)S/C1=C\c1ccc2ncccc2c1 [RO-3306]
Test: Viability of human cancer cell lines after 72 h of drug (GDSC screen)
Settings: top dose 5 µM; top dose inferred
Protocol: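 Human cancer cell lines in 384-well plates, medium with 10% serum, drug for 72 h over a 256-fold dose range (nine 2-fold or five 4-fold steps up to the top dose). Adherent lines were fixed and stained with the nucleic acid dye Syto60, suspension lines read with resazurin; signal relative to control wells, capped at 0 and 100%. One two-parameter sigmoid per drug and line, fitted in a mixed model over all curves with the slope shared within a line.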

Cell Line | AUC | IC50
PFSK-1 (medulloblastoma, adherent) | 0.901 | > 5 µM
PL4 (pancreas, adherent) | 0.976 | > 5 µM
PSN1 (pancreas, adherent) | 0.865 | 3.3 µM
PWR-1E (prostate, adherent) | 0.9 | > 5 µM
QGP-1 (pancreas, adherent) | 0.979 | > 5 µM
QIMR-WIL (acute myeloid leukaemia, suspension) | 0.964 | > 5 µM
RC-K8 (B-cell lymphoma, suspension) | 0.993 | > 5 µM
RCC10RGB (kidney, adherent) | 0.909 | > 5 µM
RCC-AB (kidney, adherent) | 0.943 | > 5 µM
RCC-ER (kidney, adherent) | 0.962 | > 5 µM
RCC-FG2 (kidney, adherent) | 0.967 | > 5 µM
RCC-JF (kidney, adherent) | 0.928 | > 5 µM
RCC-JW (kidney, adherent) | 0.978 | > 5 µM
RCC-MF (kidney, adherent) | 0.914 | > 5 µM
RCH-ACV (B-cell leukaemia, suspension) | 0.991 | > 5 µM
RCM-1 (large intestine, adherent) | 0.978 | > 5 µM
REH (B-cell leukaemia, suspension) | 0.984 | > 5 µM
RERF-GC-1B (stomach, adherent) | 0.954 | > 5 µM
RERF-LC-KJ (lung adenocarcinoma, adherent) | 0.939 | > 5 µM
RERF-LC-MS (lung adenocarcinoma, adherent) | 0.987 | > 5 µM
RERF-LC-Sq1 (lung squamous cell carcinoma, adherent) | 0.933 | > 5 µM
RF-48 (stomach, adherent) | 0.984 | > 5 µM
RH-1 (rhabdomyosarcoma, adherent) | 0.981 | > 5 µM
RH-18 (rhabdomyosarcoma, adherent) | 0.959 | > 5 µM
RH-41 (rhabdomyosarcoma, adherent) | 0.992 | > 5 µM
RKN (ovary, adherent) | 0.955 | > 5 µM
RL (B-cell lymphoma, suspension) | 0.99 | > 5 µM

Cell Line | AUC | IC50
RO82-W-1 (thyroid, adherent) | 0.979 | > 5 µM
ROS-50 (B-cell leukaemia, suspension) | 0.975 | > 5 µM
RPMI-2650 (head and neck, adherent) | 0.97 | > 5 µM
RPMI-6666 (Hodgkin lymphoma, suspension) | 0.982 | > 5 µM
RPMI-7951 (melanoma, adherent) | 0.923 | > 5 µM
RPMI-8226 (myeloma, suspension) | 0.982 | > 5 µM
RPMI-8402 (T-cell lymphoblastic leukaemia, suspension) | 0.984 | > 5 µM
RPMI-8866 (chronic myeloid leukaemia, suspension) | 0.97 | > 5 µM
RS4-11 (leukaemia, suspension) | 0.973 | > 5 µM
RT4 (bladder, adherent) | 0.986 | > 5 µM
RVH-421 (melanoma, adherent) | 0.975 | > 5 µM
RXF393 (kidney, adherent) | 0.937 | > 5 µM
Raji (Burkitt lymphoma, suspension) | 0.99 | > 5 µM
Ramos-2G6-4C10 (Burkitt lymphoma, suspension) | 0.984 | > 5 µM
SAS (head and neck, adherent) | 0.984 | > 5 µM
SAT (head and neck, adherent) | 0.855 | > 5 µM
SBC-1 (small cell lung carcinoma, suspension) | 0.989 | > 5 µM
SBC-3 (small cell lung carcinoma, adherent) | 0.916 | > 5 µM
SBC-5 (small cell lung carcinoma, adherent) | 0.993 | > 5 µM
SCC90 (head and neck, adherent) | 0.943 | > 5 µM
SCC-9 (head and neck, adherent) | 0.974 | > 5 µM
SCC-15 (head and neck, adherent) | 0.972 | > 5 µM
SCC-25 (head and neck, adherent) | 0.964 | > 5 µM
SCH (stomach, adherent) | 0.987 | > 5 µM
SF126 (glioma, adherent) | 0.705 | 1.23 µM
SF268 (glioma, adherent) | 0.879 | > 5 µM
SF295 (glioma, adherent) | 0.949 | > 5 µM

Cell Line | AUC | IC50
SF539 (glioma, adherent) | 0.899 | > 5 µM
SH-4 (melanoma, adherent) | 0.955 | > 5 µM
SHP-77 (small cell lung carcinoma, semi-adherent) | 0.927 | > 5 µM
SIMA (neuroblastoma, adherent) | 0.975 | > 5 µM
SISO (cervix, adherent) | 0.984 | > 5 µM
SJRH30 (rhabdomyosarcoma, adherent) | 0.985 | > 5 µM
SJSA-1 (bone, adherent) | 0.948 | > 5 µM
SK-CO-1 (large intestine, adherent) | 0.922 | > 5 µM
SK-ES-1 (Ewing sarcoma, semi-adherent) | 0.977 | > 5 µM
SK-GT-2 (stomach, adherent) | 0.926 | > 5 µM
SK-GT-4 (oesophagus, adherent) | 0.923 | > 5 µM
SK-HEP-1 (liver, adherent) | 0.986 | > 5 µM
SK-LMS-1 (soft tissue, adherent) | 0.977 | > 5 µM
SK-LU-1 (lung adenocarcinoma, adherent) | 0.913 | > 5 µM
SK-MEL-1 (melanoma, suspension) | 0.993 | > 5 µM
SK-MEL-2 (melanoma, adherent) | 0.923 | > 5 µM
SK-MEL-3 (melanoma, adherent) | 0.981 | > 5 µM
SK-MEL-5 (melanoma, adherent) | 0.978 | > 5 µM
SK-MEL-28 (melanoma, adherent) | 0.987 | > 5 µM
SK-MEL-30 (melanoma, adherent) | 0.984 | > 5 µM
SK-MEL-31 (melanoma, adherent) | 0.969 | > 5 µM
SK-MES-1 (lung squamous cell carcinoma, adherent) | 0.933 | > 5 µM
SK-MG-1 (glioma, adherent) | 0.917 | > 5 µM
SK-MM-2 (myeloma, suspension) | 0.987 | > 5 µM
SK-N-AS (neuroblastoma, adherent) | 0.982 | > 5 µM
SK-N-FI (neuroblastoma, adherent) | 0.908 | > 5 µM
